# Results as given in the supplement of paper PMC3334620.
# Whole data set: some 33,000 sequences, median “E-score (-0.5 to 0.5)” near -0.056, cut for the highest 2% near 0.38. Some of the results follow.
# Molecular target: Stb4 (UniProt P50104)
# Test: PBM E-score (8-mer binding enrichment) (E-score (-0.5 to 0.5)); higher = stronger / more preferred TF binding; most listed sequences are background and not binding sites
# Settings: protein concentration: 200 nM; construct: GST-DNA-binding domain
# Outline: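 Each ungapped eight-base word and its reverse complement, pooled, received an E-score from the Universal PBM Analysis Suite. Underlying scans, normalised with masliner, recorded fluorescent anti-GST bound to GST-tagged yeast transcription factors. These were applied at about 100-200 nM to universal all-10-mer Agilent arrays double-stranded by primer extension.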
row,Sequence,PBM E-score
1,GAAGAGGA,-0.0364
2,AATGTCTC,-0.0517
3,ATTCTAAG,0.0613
4,CCCTCCCC,0.176
5,AACAATGA,-0.138
6,GAGATTGA,-0.169
7,CATTCCCA,-0.00341
8,ACCTGGAA,-0.188
9,ATGCCGCA,0.0956
10,AGACGACA,-0.0398
11,ATATCTGA,-0.0996
12,ACCATAAG,-0.245
13,TTACCTAA,-0.0268
14,GGGCGTAC,-0.0078
15,GAATATTA,0.0794
16,CCAATGCG,-0.134
17,ACCATTTA,-0.0193
18,CTGCGGTA,0.0992
19,GTTGAAGA,-0.15
20,TTCACAAA,0.0262
21,CAGGGATA,-0.234
22,CAGACGTA,-0.117
23,GACCAAGA,-0.026
24,AAACCGCC,0.0665
25,CCCAGCTA,-0.184

row,Sequence,PBM E-score
1,GCTCATCC,0.127
2,ACGCCCCC,0.0111
3,CGCACGTA,-0.0723
4,GACCACTA,-0.0106
5,CTCTATGA,-0.289
6,AGGAGAAA,-0.223
7,AATAGACA,-0.103
8,AAATTGCG,0.114
9,GTGTACAA,0.0523
10,GGCTTTAC,0.14
11,ACCGGAGT,0.135
12,ATCTAGAT,-0.0404
13,ACAAGTCC,-0.00879
14,AGGTTTGG,-0.195
15,CAGTGCCA,-0.312
16,CTCTTAGC,-0.0511
17,ATGAACTC,-0.0172
18,ATCAGTCA,-0.0498
19,GAATAACA,0.0969
20,AATATATC,0.183
21,ATTACCAC,-0.00999
22,AGGAAAAT,-0.128
23,AACTGACA,-0.103
24,GAAGCTTA,-0.13
25,GAGACGGC,0.0533

row,Sequence,PBM E-score
1,CGGCACCA,0.33
2,CTATGTAC,-0.177
3,AATACCAA,-0.102
4,GGATCAGA,0.0698
5,GATTAAGA,0.0838
6,AACTAATC,-0.021
7,ACGCTCCC,0.00542
8,AAGCCATA,-0.339
9,TCTTTTCA,-0.0839
10,GAACGGTC,0.148
11,CTACTCAG,-0.322
12,TACGTGAA,-0.126
13,CTAAGGGA,-0.127
14,AGCGGTCC,0.123
15,AATGCCTG,-0.13
16,AACAAGAG,-0.186
17,CATGCCAC,-0.227
18,AAAATTAA,-0.0798
19,CTTTCACA,0.00538
20,GCGGCCTA,-0.246
21,CGACATCA,0.0251
22,AGCGGCGC,-0.0593
23,AGATAGTA,0.0295
24,GGGAGCCA,-0.0391
25,GAAGGGTC,-0.137

row,Sequence,PBM E-score
1,GCCCTTAA,-0.0147
2,CCCGACGG,0.373
3,ATAAGTTC,0.26
4,CATCACAA,-0.208
5,TATCGCCA,-0.237
6,ACAAGTCT,-0.13
7,TATCGACA,0.0105
8,CACTCGTC,0.0228
9,AGACATAT,-0.141
10,GTGATCCA,-0.106
11,GAACTACA,0.156
12,AAAGCCGG,0.289
13,GCTTCTCA,-0.0393
14,CCGGTAGG,0.153
15,AGTCTTTC,0.117
16,CCTCGGGA,0.444
17,AACTACTC,-0.0924
18,CACTCGGC,0.402
19,AACTTTAC,0.0543
20,ATGCACCA,-0.225
21,AAGCGAAT,-0.121
22,GTACCACA,-0.00599
23,CGGGCAAC,0.0682
24,CATAATAG,-0.0375
25,CCATATCA,-0.12

row,Sequence,PBM E-score
1,CGACCCGC,0.173
2,AGCTTCAT,0.122
3,ACGCCTGG,-0.154
4,GTTTTTTA,0.0336
5,TAATTGAA,-0.0515
6,AATCCCAT,-0.121
7,GATCCCGC,0.225
8,CGAGATCG,0.222
9,CCAGCGCC,-0.0109
10,AGACGAAA,0.112
11,AAGATGCA,-0.248
12,CCGAGTCC,0.403
13,CGCGTCCA,-0.0145
14,GGATACCC,0.257
15,CGCCTTTC,-0.0815
16,ATAAATGA,-0.0962
17,AGTCATAA,0.0377
18,CTGGGAAA,-0.168
19,CAGAGCTG,-0.307
20,AATCAGAC,0.002
21,AGATGACA,-0.217
22,TCATCTAA,0.0409
23,GGAGAAAA,0.0906
24,CCACAACG,0.00766
25,TATCCGGA,0.46

row,Sequence,PBM E-score
1,CCGGGGCG,0.325
2,CAATCGTG,-0.055
3,CATCCACG,-0.00517
4,ATTCTTTA,-0.206
5,GCCATGCA,-0.0827
6,GCCGTAAA,0.177
7,GGTAGTAA,0.053
8,AAGGTCGA,-0.155
9,GGTCGAAC,-0.0406
10,GCGCGCTA,-0.0794
11,GTATCTCA,-0.0552
12,AGATTGCG,0.0633
13,CACCGTCA,-0.13
14,CTTATAAA,0.0246
15,CGCAAACA,-0.119
16,CAGTGGCC,-0.0336
17,CCCCTTGC,-0.225
18,CTCCTGTA,-0.0985
19,CAAATAGC,-0.0963
20,ACGACCGC,0.0551
21,ATGGCTGC,-0.211
22,GTCTAGTA,-0.11
23,ACTAGTTA,-0.25
24,ACGGAACG,0.327
25,CCTAATAC,-0.0369

row,Sequence,PBM E-score
1,TCAGAAGA,-0.217
2,AGTTACTC,0.0536
3,ATATTTTG,0.0515
4,ACTGTGTA,-0.141
5,ACGCTATA,-0.0219
6,AAATTGAC,-0.00865
7,CCTTTTAG,-0.264
8,ATATATAA,0.0369
9,ATGTCTCA,-0.214
10,CCCGTATA,0.136
11,TTCCCGAA,0.46
12,TCCTACGA,-0.157
13,AGTGGGGA,-0.168
14,AAGCTCTC,0.091
15,CCGAATAG,0.37
16,ACCTAGGC,-0.0147
17,CATCAGTC,-0.0805
18,ACGTGGAT,-0.0782
19,ACGCAGTG,-0.077
20,ACCCCAAC,-0.189
21,ACTCTGCT,0.051
22,CCACACTC,-0.083
23,ATGCGAGC,-0.123
24,ATACAAAA,-0.107
25,ACACTTTC,0.144

row,Sequence,PBM E-score
1,GCACGTAC,-0.00875
2,CTCTAAGC,0.0612
3,GCTGTGTA,-0.172
4,ACAAAGAC,0.0337
5,CATAGGGA,-0.208
6,CCCCCTCA,-0.334
7,ACAATATA,0.167
8,CTATGCAA,-0.205
9,CTCCAGTA,-0.0933
10,CGCTCCTC,-0.166
11,TAACCAGA,-0.0403
12,ACTGCCAT,-0.221
13,ATGTACAA,-0.0734
14,ACGGTACC,0.28
15,ACATTATC,0.115
16,CTAGGCAG,-0.169
17,AATTCCTA,-0.269
18,GAGTCACA,-0.116
19,ACATGGAA,0.0488
20,ACACCGGT,0.109
21,CCACAACA,-0.257
22,CGACCAGC,0.115
23,AGTCATAC,-0.0938
24,ACCCTACG,-0.0606
25,ACCGGGAT,0.321

row,Sequence,PBM E-score
1,CGTTCCGA,0.451
2,GCACATCC,0.162
3,ATCCTCTC,-0.212
4,GGGAGGCA,-0.00345
5,GTCGCAAA,-0.0522
6,CGTACCCC,0.0659
7,ACAAAGAT,-0.16
8,AGGCTGTA,-0.108
9,AACCTTTG,-0.0665
10,GGTTAACC,0.125
11,AAGCGTCA,-0.291
12,GGCCGCCC,-0.0496
13,CGATTCCA,0.0252
14,AACATTCC,0.187
15,CGAGGTTC,0.234
16,AGGTTACC,0.209
17,ATGAAACC,-0.0214
18,AGTCCCAA,-0.0575
19,CGGAGTTC,0.283
20,AATTGTGA,-0.134
21,CCATAACA,-0.0542
22,AGTCTTAA,-0.25
23,ATTGGGTC,-0.0344
24,GTTGAGTA,-0.0078
25,CTAGCTAA,-0.117

row,Sequence,PBM E-score
1,ACCGCTCG,0.13
2,ATTTCTAA,0.0106
3,CCCAGAAC,-0.216
4,AGCGCGAC,-0.151
5,AATCCTAC,-0.0751
6,ATTCGGCA,0.438
7,CATCAAGC,-0.12
8,AGTCCAGC,-0.158
9,ATGAGCTA,-0.119
10,AAGCTGTG,-0.129
11,GGGATTTA,0.202
12,GTTAAATA,0.0514
13,ACCATCAT,-0.0709
14,GAACGGCA,0.213
15,CAGCACGA,-0.156
16,CACGTAAC,-0.12
17,GCCGCTAC,0.117
18,AGTATGTG,0.0678
19,TGTGAGAA,0.0211
20,ACGGGATC,0.227
21,TCCACCCA,-0.304
22,GAGAGTCA,-0.233
23,ATCAGCTC,-0.0462
24,ATGTAGTA,-0.0564
25,GCACTGAA,-0.0543

row,Sequence,PBM E-score
1,TAAGTCTA,-0.197
2,CTAACCCA,-0.157
3,CTTTAGGA,-0.249
4,TGTTGAAA,0.00091
5,CGGCCCCC,0.0071
6,CACGCGAA,-0.163
7,AATCTGCA,-0.0706
8,CACAAGTG,-0.237
9,ATGATCGG,0.32
10,ACGGTTAA,0.175
11,GTGTATGA,-0.184
12,ATTTATGA,0.116
13,ATCCTTTA,-0.118
14,AGAGGTAT,-0.114
15,TCTTTGAA,-0.15
16,CACTATCA,-0.0958
17,GAACAAAA,0.117
18,AACCAAAA,0.0853
19,CAGTTCAA,-0.0612
20,ACCCAGGA,-0.104
21,ATTTCTAG,0.0233
22,CCCACATA,-0.162
23,CCAGCACA,-0.124
24,CGCTCCGC,0.0183
25,TAGGCTAA,-0.161

row,Sequence,PBM E-score
1,GTAGTGAA,-0.0707
2,TCGTATCA,-0.0551
3,GAGCGCAA,-0.169
4,GCGGGTTA,0.154
5,CCGCGAGA,0.00202
6,CGAGTCAC,0.0132
7,CGTTTGAC,0.0315
8,AAATTATC,0.0765
9,GACGTAAC,-0.0191
10,AGATTGAC,-0.0764
11,GTGTAGGA,0.08
12,GAAGGATA,0.00639
13,ACAGGCGC,-0.205
14,AGCAGAAG,-0.115
15,AATGAGTG,0.0515
16,ATGCGGTC,0.0867
17,CTGATCGC,-0.228
18,CCATGCGA,-0.0784
19,CCCGCCCC,0.357
20,ATCACTAA,0.00784
21,AAGAATCC,0.102
22,CCTGCTAG,-0.26
23,AAGGATGC,0.0597
24,AGGCATTC,-0.155
25,ACATCTCG,0.189

row,Sequence,PBM E-score
1,GACGCAAA,0.0375
2,GCTGACTA,-0.206
3,ACTATGCA,-0.0883
4,TAGCTTAA,-0.236
5,GAAGCGCC,0.153
6,TAATATAA,0.0826
7,ACGCCCAC,-0.181
8,GGACTACC,0.132
9,AAGATGTG,-0.156
10,TTAGACAA,-0.0136
11,GGCGTCTA,-0.0613
12,GGTTGTGA,0.0633
13,AAGAAAAA,0.0247
14,ATGACCTG,-0.139
15,GCGCTGAA,0.0058
16,CCTCAATA,-0.13
17,CTACTGAG,-0.0265
18,TCCAAAGA,-0.153
19,ATTACTGA,-0.346
20,ACGCACCG,0.0906
21,CGTTGCGA,-0.101
22,GAGTACCA,0.0236
23,TATCGTGA,-0.162
24,AAACACCT,-0.0219
25,AGGTGTAC,-0.191

row,Sequence,PBM E-score
1,AGTTCCAT,-0.0691
2,AATCCAAT,0.00508
3,GCCATAAA,-0.0329
4,GGTAAACC,0.0527
5,GATGGATA,0.0447
6,ACCTTACT,0.0318
7,TAAGGCGA,-0.103
8,AACAGAGT,-0.126
9,GTACGTAA,-0.119
10,AATGCGAA,0.0466
11,CCCAAGAA,0.0234
12,GTTATAAC,0.0904
13,ATAACTCG,0.175
14,AGCGCGCA,0.0388
15,AATCCCTC,-0.0127
16,CGAGCTTC,0.246
17,CATTTGCA,-0.11
18,AAGTTGAA,-0.0617
19,CCATACTC,0.027
